# Assay results from the supplement of paper PMC9446081.
# In all, about 39,000 compounds went through this assay and about 220 (0.56%) showed activity. This is one part of the list.
# Test system: Escherichia coli K-12 BW25113
# Assay: relative growth (OD600 normalised to plate interquartile mean) (fraction); higher = less growth inhibition, active = 0.2 or less
# Conditions: 50 µM; LB; incubation time: overnight (16-24 h)
# 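Also: static incubation at 37 °C against the wild-type strain, values averaged over two biological replicates.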
row,SMILES,relative growth
1,COc1ccc(NC(=O)Nc2ccc3c(c2)C(=O)N([C@H](C)CO)C[C@H](C)[C@@H](CN(C)C(=O)Cc2ccccc2)OCCCC[C@@H](C)O3)cc1,inactive: 0.994
2,C[C@H](CO)N1C[C@H](C)[C@@H](CN(C)Cc2ccc(Cl)c(Cl)c2)Oc2ccc(NC(=O)CCCCCC(=O)Nc3ccccc3N)cc2CC1=O,inactive: 0.995
3,C[C@@H]1CN([C@@H](C)CO)C(=O)c2cc(NC(=O)NC3CCCCC3)ccc2O[C@@H](C)CCCCO[C@@H]1CN(C)C(=O)Nc1ccccc1,inactive: 1
4,COc1ccc(CN(C)C[C@@H]2OCCCC[C@@H](C)Oc3ccc(NC(=O)Nc4c(C)noc4C)cc3C(=O)N([C@@H](C)CO)C[C@@H]2C)cc1,inactive: 0.97
5,CC(C)NC(=O)N(C)C[C@H]1OCCCC[C@H](C)Oc2ccc(NC(=O)C3CCCCC3)cc2C(=O)N([C@@H](C)CO)C[C@H]1C,inactive: 1.01
6,C[C@H]1CN([C@@H](C)CO)C(=O)c2cc(NC(=O)Nc3ccccc3)ccc2O[C@H]1CN(C)Cc1ccc(C(=O)Nc2ccccc2N)cc1,inactive: 0.99
7,Cc1ccc(S[C@]2(C(=O)NC(C)C)CC(=O)N(Cc3ccccc3C(F)(F)F)[C@@H]2c2ccc(CO)cc2I)cc1,inactive: 0.992
8,Cc1noc(C)c1NC(=O)N(C)C[C@@H]1OCCCC[C@@H](C)Oc2ccc(NC(=O)Cc3ccccc3)cc2C(=O)N([C@H](C)CO)C[C@H]1C,inactive: 0.991
9,C#CC1(O)CCC2C3CCc4cc(OC)ccc4C3CCC21C (configuration not stated),inactive: 0.887
10,C[C@H]1CCCCO[C@@H](CN(C)C(=O)Cc2ccccc2)[C@@H](C)CN([C@@H](C)CO)C(=O)c2cc(NS(=O)(=O)c3ccc(F)cc3)ccc2O1,inactive: 0.988
11,Cc1ccc(S(=O)(=O)N(C)C[C@@H]2Oc3ccc(NC(=O)CCCN(C)C)cc3C(=O)N([C@H](C)CO)C[C@H]2C)cc1,inactive: 1.01
12,COc1ccc(CN(C)C[C@@H]2Oc3ccc(NC(=O)CCN4CCOCC4)cc3CC(=O)N([C@H](C)CO)C[C@H]2C)cc1,inactive: 1.01
13,CO[C@H]1CN(C)C(=O)c2ccc(NC(=O)Nc3ccccc3F)cc2OC[C@@H](C)N(Cc2ccccc2C(=O)O)C[C@@H]1C,inactive: 1.02
14,COc1ccc(CN(C)C[C@@H]2OCCCC[C@@H](C)Oc3ccc(NS(=O)(=O)c4ccc(OC)cc4)cc3C(=O)N([C@H](C)CO)C[C@@H]2C)cc1,inactive: 1.01
15,C[C@@H]1CN([C@@H](C)CO)C(=O)c2cc(NC(=O)Nc3ccc(C(F)(F)F)cc3)ccc2O[C@@H](C)CCCCO[C@H]1CN(C)C(=O)C1CCCCC1,inactive: 1.02
16,CCn1ccnc1CO,inactive: 0.986
17,N=C(N)Nc1nc(=O)c2ccccc2[nH]1,inactive: 0.99
18,COc1ccc(NC(=O)N(C)C[C@@H]2Oc3ccc(NS(C)(=O)=O)cc3C(=O)N([C@@H](C)CO)C[C@H]2C)cc1,inactive: 0.99
19,CC(C)NC(=O)Nc1ccc2c(c1)C(=O)N([C@H](C)CO)C[C@H](C)[C@H](CN(C)C(=O)Nc1ccc3c(c1)OCO3)O2,inactive: 0.996
20,C[C@@H]1CN([C@H](C)CO)C(=O)c2cccc(NC(=O)c3ccc(-c4nccs4)cc3)c2O[C@H]1CN(C)Cc1ccc2c(c1)OCO2,inactive: 1.03
21,C[C@@H]1CN([C@@H](C)CO)S(=O)(=O)c2ccc(-c3ccc(C(=O)N(C)C)cc3)cc2O[C@@H]1CN(C)C(=O)C1CC1,inactive: 0.998

row,SMILES,relative growth
1,C[C@H]1CN([C@@H](C)CO)C(=O)c2cccc(NS(=O)(=O)c3ccc(F)cc3)c2O[C@H]1CN(C)S(=O)(=O)c1ccccc1,inactive: 0.999
2,C[C@@H]1CN([C@H](C)CO)C(=O)CCCn2nncc2CO[C@H]1CN(C)S(=O)(=O)c1ccc(Cl)cc1,inactive: 1.03
3,COc1ccc(S(=O)(=O)N(C)C[C@H]2OCCCC[C@H](C)Oc3ccc(NC(=O)Nc4ccc(C(F)(F)F)cc4)cc3C(=O)N([C@H](C)CO)C[C@H]2C)cc1,inactive: 1.02
4,CSC(=N)NCCC[C@H](N)C(=O)O,inactive: 0.998
5,Cc1ccc(S(=O)(=O)Nc2ccc3c(c2)C(=O)N([C@@H](C)CO)C[C@H](C)[C@@H](CN(C)S(C)(=O)=O)O3)cc1,inactive: 0.982
6,Cc1noc(C)c1S(=O)(=O)Nc1cccc2c1O[C@@H](CN(C)Cc1ccc3c(c1)OCO3)[C@@H](C)CN([C@@H](C)CO)C2=O,inactive: 1.01
7,Cc1noc(C)c1NC(=O)Nc1ccc2c(c1)CC(=O)N([C@@H](C)CO)C[C@@H](C)[C@H](CN(C)C(=O)Nc1cccc3ccccc13)O2,inactive: 0.992
8,O=C1C(=O)N(C[C@@H](O)COc2cccc3ccccc23)C(=O)C(=O)N1C[C@@H](O)COc1cccc2ccccc12,inactive: 1.01
9,C[C@@H]1CCCCO[C@@H](CN(C)Cc2ccccc2)[C@@H](C)CN([C@H](C)CO)C(=O)c2cc(NC(=O)Nc3ccc(C(F)(F)F)cc3)ccc2O1,inactive: 1.01
10,CN[C@H]1CC[C@@H](c2ccc(Cl)c(Cl)c2)c2ccccc21,inactive: 0.868
11,Cc1nc(-c2cccc(F)c2)cs1,inactive: 0.985
12,COc1ccc(NC(=O)N(C)C[C@@H]2Oc3ncc(Br)cc3C(=O)N([C@H](C)CO)C[C@@H]2C)cc1,inactive: 0.983
13,COc1ccc(S(=O)(=O)N(C)C[C@@H]2Oc3ccc(NC(=O)NC(C)C)cc3CC(=O)N([C@H](C)CO)C[C@H]2C)cc1,inactive: 1
14,Cc1ccc(S(=O)(=O)N(C)C[C@@H]2Oc3ccc(NC(=O)Cn4cnnn4)cc3C(=O)N([C@H](C)CO)C[C@@H]2C)cc1,inactive: 1
15,C[C@H](CO)N1C[C@H](C)[C@H](CN(C)S(=O)(=O)c2cn(C)cn2)Oc2ccc(NC(=O)C3CCCCC3)cc2C1=O,inactive: 1.01
16,Cc1coc(C)c1C(=O)O[C@@H]1O[C@@H](C)[C@H](O)[C@@H](O)[C@H]1O,inactive: 0.971
17,COc1ccc(-c2coc3cc(OC(C)=O)cc(OC(C)=O)c3c2=O)cc1,inactive: 0.93
18,C/C=C/c1ccc(OC)cc1,inactive: 0.98
19,C=CC[C@@H](CC(=O)N[C@@H](CO)Cc1ccccc1)C(=O)N[C@@H](C)COC(=O)[C@H](CC=C)CC(=O)OC(C)(C)C,inactive: 0.994
20,CCC(=O)Nc1cccc([C@@H](CCc2ccc(OC)c(OC)c2)OC(=O)[C@@H]2CCCCN2C(=O)C(=O)C(C)(C)CC)c1,inactive: 1.03
21,C[C@@H]1CN([C@@H](C)CO)S(=O)(=O)c2ccc(C#Cc3ccc(F)cc3)cc2O[C@H]1CN(C)S(=O)(=O)c1cn(C)cn1,inactive: 1.02

row,SMILES,relative growth
1,C[C@H](CO)N1C[C@H](C)[C@@H](CN(C)S(=O)(=O)c2ccc(F)cc2)OCCCC[C@H](C)Oc2ccc(NC(=O)Nc3ccc4c(c3)OCO4)cc2C1=O,inactive: 1
2,COc1ccc(NC(=O)N(C)C[C@H]2OCCCC[C@@H](C)Oc3ccc(NC(=O)NC4CCCCC4)cc3C(=O)N([C@@H](C)CO)C[C@H]2C)cc1,inactive: 0.988
3,CC(C)NC(=O)Nc1cccc2c1O[C@@H](CN(C)S(=O)(=O)c1cn(C)cn1)[C@H](C)CN([C@H](C)CO)C2=O,inactive: 1.01
4,CC(=O)N(C)C[C@H]1Oc2ncc(C#CC(C)(C)O)cc2C(=O)N([C@@H](C)CO)C[C@H]1C,inactive: 1.02
5,CC(C)[C@@H](CO)N1C(=O)[C@@H]2[C@H]3C(=O)OCCC/C=C\[C@H]3O[C@]23C=CCN(c2ccc4ccccc4c2)C(=O)[C@@H]13,inactive: 1.02
6,C[C@H]1CN([C@@H](C)CO)C(=O)Cc2cc(NC(=O)CCN3CCOCC3)ccc2O[C@H]1CN(C)S(=O)(=O)c1cccs1,inactive: 0.99
7,N=C(N)c1ccc(OCCCCCOc2ccc(C(=N)N)cc2)cc1.O=S(=O)(O)CCO.O=S(=O)(O)CCO,inactive: 0.897
8,COc1ccc(-c2cnc3c(c2)C(=O)N([C@@H](C)CO)C[C@H](C)[C@@H](CN(C)C(=O)C2CCOCC2)O3)cc1,inactive: 0.981
9,C[C@H]1CN([C@@H](C)CO)C(=O)c2c(c3ccccc3n2C)-c2ccccc2CO[C@@H]1CN(C)Cc1ccc(Oc2ccccc2)cc1,inactive: 0.999
10,CCCCC(=O)C1CCC(c2ccc(Cl)cc2)CC1 (configuration not stated),inactive: 1.02
11,C[C@H]1CN([C@@H](C)CO)C(=O)CCCn2nncc2CO[C@@H]1CN(C)C(=O)CCCN(C)C,inactive: 0.998
12,C[C@@H]1CN([C@H](C)CO)C(=O)c2cccc(NC(=O)Nc3ccccc3)c2O[C@H]1CN(C)C(=O)Nc1cccc2ccccc12,inactive: 1.01
13,c1cnc2c(c1)OCCN2,inactive: 1.02
14,C[C@@H]1CN([C@H](C)CO)C(=O)c2cccc(NC(=O)c3cnccn3)c2O[C@H]1CN(C)C(=O)Nc1ccccc1,inactive: 0.999
15,COc1ccccc1S(=O)(=O)N(C)C[C@@H]1OCc2cnnn2CCCC(=O)N([C@@H](C)CO)C[C@@H]1C,inactive: 0.995
16,CCN[C@H]1CCS(=O)(=O)C1,inactive: 1.01
17,C[C@H](CO)N1C[C@H](C)[C@H](CN(C)CC2CCCCC2)Oc2ccc(NC(=O)Nc3ccc(F)cc3)cc2C1=O,inactive: 0.976
18,O=S1(=O)COC[C@@H](c2ccccc2)N1,inactive: 1.01
19,C[C@@H]1CN([C@H](C)CO)C(=O)Cc2cc(NS(=O)(=O)c3ccc(F)cc3)ccc2O[C@@H]1CN(C)Cc1ccc(Cl)c(Cl)c1,inactive: 0.999
20,COc1ccc(NC(=O)N(C)C[C@H]2OCCCC[C@@H](C)Oc3ccc(NC(=O)Nc4ccc(C(F)(F)F)cc4)cc3C(=O)N([C@@H](C)CO)C[C@H]2C)cc1,inactive: 1.02
